The supplement of paper PMC11417369
The list shows a part of the results.

System: PfSIP2 AP2 domain 1 (GST-tagged)
Assay: gcPBM binding intensity (ln(normalized median fluorescence intensity)); higher = stronger DNA binding
Outline: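 After 1 h on an Agilent 4 × 180k array of primer-extended double-stranded 36-bp intergenic genomic probes and negative controls, bound GST-tagged P. falciparum DNA-binding domains were detected with Alexa488 anti-GST antibody and scanned at 488 nm. The domains had been expressed in E. coli, and binding took place in 1× PBS with 1% milk, 0.2 mg/ml BSA, 0.5% salmon testes DNA and 0.03% Triton X-100. Binding intensity is the highest Masliner-normalised natural-log median intensity across replicate spots of either probe orientation.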

Point of comparison: “TATAAAGCAACTGAAACACACAAATTTTTTTTTTTT [CACACA_site3218]”, “gcPBM binding intensity (ln)” value 6.76. Against it:
- AACTTTTTACAAACAGGTACGCATATATATATATAT [XGTACX_site5081] — higher, 8.9
- AATAATTATTTGTATAGTACAATATACAAAAGATGA [XGTACX_site4312] — higher, 7.07
- CACATACACATACAAACACACATTATATATATATAT [CACACA_site8460] — higher, 9.36
- CATCCATTATTAATATGTACATATGTATATATATTA [XGTACX_site1318] — higher, 7.16
- GAAAAAAAAAAAAGGGGTACATTTATTTTATCAATA [XGTACX_site8331] — the same, 6.76
- TTTTTTTTTTTTTTTTTTTTTTTCTTTATTTTTTTT [CACACA_negctrl_site703] — higher, 6.83
- AAAATTAATAAATAAACACACATATTTATATTTATA [CACACA_site7266] — lower, 6.74
- TATAAATATAGACACACACACACACCGAAGCGTAGC [CACACA_site6180] — higher, 6.8
- TCGTCACTTTAATATTGTACATATATATATATATAT [XGTACX_site8046] — higher, 9.7
- ATATATATATGTGCCAGTACACATGTATACATTATA [XGTACX_site3899] — higher, 8.67
- GATATATATATTCACACACACATGGAAATATATATA [CACACA_site382] — higher, 7
- ACAGAAAAAAGACACACACACATAATATACATACAT [CACACA_site6991] — higher, 7.37
- ATTTTTTAAATGAGGCGTACACAAAAATATAATTAC [XGTACX_site7087] — higher, 7.6
- CTTAGATATAAAAATTGTACATACATATTTTTGACA [XGTACX_site2107] — higher, 7.03
- TATATATATATATATACACACACACTAATAAAAAAA [CACACA_site8426] — higher, 9.24
- TTTTTTTCGTAAAAAAAAATAATTATTAAATGAAGG [TGCATGCA_negctrl_site212] — higher, 7.09
- TAAACACCCATATAAACACACATATAAACACCCATA [CACACA_site5382] — higher, 7.06
- TTTATTTATTTTTAACGTACGCACACATATAAATAT [XGTACX_site4042] — higher, 7.54
- TATTATAAAATATACACATGCAAAAACAAAATTTAC [TGCATGCA_site1051] — higher, 7.26
- TATTTTTAATAAAAACGTACGGAATACAAAAAAAAT [XGTACX_site3477] — higher, 7.38
- TATATACATTGGTATACATGCATTCTCTTTCATACA [TGCATGCA_site734] — higher, 6.88
- TAAAATTTATAAACTACACACATATAAATAGTAATA [CACACA_site7708] — higher, 6.81
- TTAAACATATATTAAGCACACACAAACAAAAAAACA [CACACA_site8816] — higher, 7.3
- AACATATTTTTTTGTTGTACTTACAATTATAAGCAT [XGTACX_site3056] — higher, 6.9
- TATACCAAATATATGGGTACACAAATATGTTTATTC [XGTACX_site8932] — higher, 6.9
- TAATTAATCGATTTACGCACATGAACAAAAGCACAT [CACACA_negctrl_site1287] — higher, 7.09
- ACTATTTTCTTCAAAACATGCACCACATAAACATAA [TGCATGCA_site200] — higher, 10.5
- ATTATTTATTTATGTGTGCGCATGTGTGTAAATATT — higher, 8.85
- GTAAATATTAATAAAAGTACATATGTAGCATATGGA [XGTACX_site5219] — higher, 7.09
- CCTTTTTTATTTACAACACACGTAAAGGTTCAAATA [CACACA_site1741] — higher, 7.39
- AGAAAAAAAAAAAATGCACACATTTTCATTGTCAGT [CACACA_site1935] — higher, 7
- ATATATATATATATGTGTACATATTTTTTTTTTTTT [XGTACX_site3425] — higher, 9.26
- AAAAAACACAGACATACACACAAAAAGGTTATAAAT [CACACA_site4222] — higher, 6.91
- CATATCTCTTATTAATGTACATTTTTAAAAGTAAAT [XGTACX_site2847] — higher, 7.15
- CTTTTTTTTATGAACAGTACAGAAATATATATATAC [XGTACX_site5613] — higher, 7.13
- TTTATATAATGGAAAAGTACTCAGGAAATTTATACA [XGTACX_site3635] — higher, 7.3
- CAAGAACAAAAAATATGTACATATAATTATATATAT [XGTACX_site2082] — higher, 7.75
- TTAAAATTAAAAATAGGTACACATATGAACAAGGAC [XGTACX_site1180] — higher, 7.82
- TTATATGATATATGACGTACATATTAATAACATCTA [XGTACX_site6716] — higher, 7.2
- TGTAATATTTTATAAAGTACATTATAATATAATTCA [XGTACX_site2961] — higher, 6.97
- TTGTTCCAATAAAATCGTACAATTAAACAACCAAAC [XGTACX_site5759] — higher, 7.28
- TTTTTTTCTATAATACACCAGAAAAAAAAATTAAAA [TGCATGCA_negctrl_site257] — higher, 6.96
- AGATTGAAATATAGTTGTACAAATATTTTAAAACAT [XGTACX_site3026] — higher, 7.08
- CAATCAACAAAACATACACACACATATATATATATA [CACACA_site8979] — higher, 9.32
- TAATTATAAAAATAAAACAACCAAATTTGTTATATA [CACACA_negctrl_site750] — higher, 6.78
- TAATTTATAAATAATTGTACATAGTTTATTTAGATT [XGTACX_site4599] — higher, 6.86
- ATATATATAAAATAAAGTACCCGTAAAACCTATATG [XGTACX_site6937] — higher, 7.36
- AAAAAAAAAAAAAAAAAATAATAAAAAATAAAAAAA [GTGCAC_negctrl_site341] — higher, 7.55
- GACGACTATATTAATTGTACTCAATTTAAGCATAAT [XGTACX_site2750] — higher, 7.1
- TATGTTAATCCTATTTGTACATATAATCGAATTAAA [XGTACX_site7090] — higher, 6.92
- GAAAGGAAAAGTTGAACACACAAAGTAAACTATAAG [CACACA_site3535] — lower, 6.7
- TAATGAAGATATATAACACACAAAAGTTATAAATAT [CACACA_site6678] — higher, 6.95
- ATATATAATAATATATGTACATAATATTTTTTTTTT [XGTACX_site1941] — higher, 6.98
- GCCATTAATTTATACACACACATTAAAATTTTTTAT [CACACA_site4575] — higher, 7.58
- GCTATAAATACAGACGCACACATATACATACATATA [CACACA_site3329] — higher, 7.56
